The supplement of paper PMC3334620
The full ranking holds about 33,000 sequences; the median of “E-score (-0.5 to 0.5)” is about -0.04, and the highest 2% start at about 0.36. Some of the results follow.

These sequences were tested against T1, Hmlalpha2 (UniProt P0CY09) (assay: PBM E-score (8-mer binding enrichment) (E-score (-0.5 to 0.5)); higher = stronger / more preferred TF binding; most listed sequences are background and not binding sites). Settings: protein concentration: 200 nM; construct: GST-full length.
T1 sequence: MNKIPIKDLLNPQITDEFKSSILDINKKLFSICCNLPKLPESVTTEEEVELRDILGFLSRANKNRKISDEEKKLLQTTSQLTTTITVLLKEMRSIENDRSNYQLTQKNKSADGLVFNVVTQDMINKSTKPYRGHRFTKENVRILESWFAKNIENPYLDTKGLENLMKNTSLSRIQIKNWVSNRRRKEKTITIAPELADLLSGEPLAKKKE
Method in brief: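 Bound GST-tagged yeast transcription factors, applied at about 100-200 nM to double-stranded universal all-10-mer Agilent arrays, were detected with fluorescent anti-GST. Scans were normalised with masliner. A modified Wilcoxon-Mann-Whitney statistic, the E-score, was assigned to each ungapped eight-base word pooled with its reverse complement by the Universal PBM Analysis Suite.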

**Q.** Which “PBM E-score” value does the source give for ATCCGCTA here?
**A.** Its value is -0.0493.

**Q.** How did the “PBM E-score” value turn out when CATTCAGA was run?
**A.** The value was -0.125.

**Q.** With AACTTAAC as the sequence, how does the “PBM E-score” value read?
**A.** Its value is 0.248.

**Q.** GCACGTGA was tested. Which “PBM E-score” value did it give?
**A.** Its value is 0.0771.

**Q.** ACTACTTG was tested. Which “PBM E-score” value did it give?
**A.** Its value is 0.154.

**Q.** With ATTTCTAC as the sequence, how does the “PBM E-score” value read?
**A.** Its value is 0.234.

**Q.** For ATACCGTG, which “PBM E-score” value is on record?
**A.** The value was 0.0883.

**Q.** How did the “PBM E-score” value turn out when GAAGCACA was run?
**A.** The value was 0.0477.

**Q.** CAATCCCG was tested. Which “PBM E-score” value did it give?
**A.** Its value is -0.0881.

**Q.** For CCCCGGGG, which “PBM E-score” value is on record?
**A.** Its value is -0.346.

**Q.** How did the “PBM E-score” value turn out when AGGGTATG was run?
**A.** The value was 0.0728.

**Q.** With ATGGACAA as the sequence, how does the “PBM E-score” value read?
**A.** The value was 0.197.

**Q.** How did the “PBM E-score” value turn out when AGGCAGGC was run?
**A.** Its value is -0.229.

**Q.** Which “PBM E-score” value does the source give for ATTATCGC here?
**A.** Its value is -0.0544.

**Q.** CCAATTCC was tested. Which “PBM E-score” value did it give?
**A.** Its value is -0.0554.

**Q.** For AACTGTGG, which “PBM E-score” value is on record?
**A.** Its value is 0.00645.

**Q.** CGGAAAAA was tested. Which “PBM E-score” value did it give?
**A.** The value was -0.0751.

**Q.** How did the “PBM E-score” value turn out when GAGAGGAA was run?
**A.** The value was -0.0668.

**Q.** Which “PBM E-score” value does the source give for CGCGTCAG here?
**A.** Its value is -0.0471.

**Q.** ATACTCAT was tested. Which “PBM E-score” value did it give?
**A.** The value was 0.127.

**Q.** ACCAGAAC was tested. Which “PBM E-score” value did it give?
**A.** Its value is -0.115.

**Q.** Which “PBM E-score” value does the source give for ATTTAACA here?
**A.** Its value is 0.429.

**Q.** With AGAAAGGA as the sequence, how does the “PBM E-score” value read?
**A.** The value was -0.139.

**Q.** AATCAAAT was tested. Which “PBM E-score” value did it give?
**A.** The value was 0.0328.

**Q.** For AAGACGAC, which “PBM E-score” value is on record?
**A.** The value was -0.165.

**Q.** With AGCCAACC as the sequence, how does the “PBM E-score” value read?
**A.** The value was -0.159.

**Q.** With TGAGATCA as the sequence, how does the “PBM E-score” value read?
**A.** Its value is 0.00951.

**Q.** CTTCTTCC was tested. Which “PBM E-score” value did it give?
**A.** The value was -0.093.

**Q.** Which “PBM E-score” value does the source give for ACCGGGGA here?
**A.** Its value is -0.139.

**Q.** ACACTGCA was tested. Which “PBM E-score” value did it give?
**A.** Its value is 0.0302.

**Q.** How did the “PBM E-score” value turn out when ACGTTTGG was run?
**A.** Its value is -0.019.

**Q.** With AAGGCATC as the sequence, how does the “PBM E-score” value read?
**A.** The value was -0.142.

**Q.** CTAAAGCA was tested. Which “PBM E-score” value did it give?
**A.** Its value is 0.0201.

**Q.** Which “PBM E-score” value does the source give for ATCAGGTG here?
**A.** The value was -0.0698.

**Q.** For ATGTATCG, which “PBM E-score” value is on record?
**A.** The value was 0.323.

**Q.** How did the “PBM E-score” value turn out when GTGTAAAC was run?
**A.** Its value is 0.474.

**Q.** With CTAGAGTC as the sequence, how does the “PBM E-score” value read?
**A.** Its value is -0.305.

**Q.** With AGAGACTC as the sequence, how does the “PBM E-score” value read?
**A.** Its value is -0.216.

**Q.** With CGAGTGCG as the sequence, how does the “PBM E-score” value read?
**A.** Its value is -0.102.

**Q.** For AGGACATA, which “PBM E-score” value is on record?
**A.** Its value is 0.0838.

**Q.** With GTATCCTA as the sequence, how does the “PBM E-score” value read?
**A.** The value was 0.0388.

**Q.** Which “PBM E-score” value does the source give for GTCCTGTA here?
**A.** The value was 0.14.

**Q.** Which “PBM E-score” value does the source give for GACATAAA here?
**A.** Its value is 0.267.

**Q.** With CACAGACG as the sequence, how does the “PBM E-score” value read?
**A.** Its value is 0.115.

**Q.** With TACATGAA as the sequence, how does the “PBM E-score” value read?
**A.** The value was 0.45.

**Q.** For CACCTCGG, which “PBM E-score” value is on record?
**A.** The value was -0.121.

**Q.** How did the “PBM E-score” value turn out when ACTGGACT was run?
**A.** The value was -0.04.

**Q.** With GGAACTCC as the sequence, how does the “PBM E-score” value read?
**A.** The value was -0.255.

**Q.** For AGTAGCTC, which “PBM E-score” value is on record?
**A.** Its value is -0.151.

**Q.** How did the “PBM E-score” value turn out when ATATGCCG was run?
**A.** The value was -0.0441.

**Q.** For GTAAATAA, which “PBM E-score” value is on record?
**A.** Its value is 0.357.

**Q.** Which “PBM E-score” value does the source give for TAGTTTCA here?
**A.** The value was 0.0755.

**Q.** Which “PBM E-score” value does the source give for GACAGTCA here?
**A.** Its value is -0.158.

**Q.** How did the “PBM E-score” value turn out when GCCCGTCC was run?
**A.** The value was -0.245.

**Q.** ACTTCTAA was tested. Which “PBM E-score” value did it give?
**A.** Its value is -0.0759.

**Q.** How did the “PBM E-score” value turn out when ACGGTACG was run?
**A.** Its value is 0.096.

**Q.** Which “PBM E-score” value does the source give for TACTTGCA here?
**A.** Its value is 0.162.

**Q.** Which “PBM E-score” value does the source give for AGGTTCTG here?
**A.** The value was -0.0953.

**Q.** With AGTCGAAA as the sequence, how does the “PBM E-score” value read?
**A.** The value was -0.0792.

**Q.** With GGGTCTGA as the sequence, how does the “PBM E-score” value read?
**A.** The value was -0.249.

**Q.** For CCTACATA, which “PBM E-score” value is on record?
**A.** The value was 0.13.

**Q.** Which “PBM E-score” value does the source give for GTGGCATA here?
**A.** Its value is -0.0694.

**Q.** GAGAAGAA was tested. Which “PBM E-score” value did it give?
**A.** Its value is -0.0573.

**Q.** For TGCCAGAA, which “PBM E-score” value is on record?
**A.** The value was -0.155.

**Q.** Which “PBM E-score” value does the source give for AGCGATTG here?
**A.** Its value is -0.193.

**Q.** With ACTGAGAG as the sequence, how does the “PBM E-score” value read?
**A.** Its value is -0.025.

**Q.** With GTACCCGA as the sequence, how does the “PBM E-score” value read?
**A.** Its value is -0.208.

**Q.** ACACTGCT was tested. Which “PBM E-score” value did it give?
**A.** Its value is 0.0104.

**Q.** How did the “PBM E-score” value turn out when CTCTCCGA was run?
**A.** The value was -0.104.

**Q.** With GATACACA as the sequence, how does the “PBM E-score” value read?
**A.** The value was 0.214.

**Q.** For CATTTTGG, which “PBM E-score” value is on record?
**A.** Its value is -0.0482.

**Q.** With AGAAATAG as the sequence, how does the “PBM E-score” value read?
**A.** The value was 0.119.

**Q.** CTAAATCA was tested. Which “PBM E-score” value did it give?
**A.** Its value is -0.0453.

**Q.** GTATTCAA was tested. Which “PBM E-score” value did it give?
**A.** The value was 0.283.

**Q.** With ACGGAGCG as the sequence, how does the “PBM E-score” value read?
**A.** The value was -0.0183.

**Q.** Which “PBM E-score” value does the source give for AACAGAAT here?
**A.** The value was -0.0385.

**Q.** How did the “PBM E-score” value turn out when ACTTTAAT was run?
**A.** The value was 0.057.

**Q.** For ATGCAGTA, which “PBM E-score” value is on record?
**A.** The value was 0.136.

**Q.** GAAAGAGA was tested. Which “PBM E-score” value did it give?
**A.** The value was -0.201.

**Q.** Which “PBM E-score” value does the source give for CTTCTAGA here?
**A.** Its value is -0.132.

**Q.** ACCGTCCC was tested. Which “PBM E-score” value did it give?
**A.** Its value is -0.206.

**Q.** ATCCGCTG was tested. Which “PBM E-score” value did it give?
**A.** The value was -0.2.

**Q.** Which “PBM E-score” value does the source give for AACTTCCG here?
**A.** The value was 0.0138.

**Q.** AAGATAGC was tested. Which “PBM E-score” value did it give?
**A.** Its value is -0.0988.

**Q.** For AAGCTTTG, which “PBM E-score” value is on record?
**A.** Its value is -0.0782.

**Q.** Which “PBM E-score” value does the source give for TCAGGTCA here?
**A.** The value was -0.138.

**Q.** For ATGTGAGC, which “PBM E-score” value is on record?
**A.** The value was -0.048.

**Q.** Which “PBM E-score” value does the source give for ACTCGTGA here?
**A.** Its value is -0.0608.

**Q.** For AACGTTCG, which “PBM E-score” value is on record?
**A.** Its value is -0.0776.

**Q.** CGTCCCGC was tested. Which “PBM E-score” value did it give?
**A.** The value was -0.0473.

**Q.** For CACCTGCG, which “PBM E-score” value is on record?
**A.** The value was -0.0191.

**Q.** For ATATTGGC, which “PBM E-score” value is on record?
**A.** Its value is 0.0118.

**Q.** Which “PBM E-score” value does the source give for AAGTGCGT here?
**A.** Its value is 0.0137.

**Q.** With CTCGGCAG as the sequence, how does the “PBM E-score” value read?
**A.** The value was -0.158.
